# Results: a collection of fitness landscapes (doi:10.1016/j.celrep.2020.107928)
# In all, about 81,000 sequences were measured (“one-hybrid fitness for binding parS DNA”: median about -0.17, highest 2% from about 0.51 on). Some of the results follow.
# B1: Caulobacter ParB omega fusion; a variant is named by its letters at X, in order, B8GW30 (parent)
# chain: MESVVVGEPGMSEGRRGLGRGLSALLGEVDAAPAQAPGEQLGGSREAPIEILQRNPDQPRRTFREEDLEDLSNSIREKGVLQPILVRPSPDTAGEYQIVAGERAWRAAQRAGLKTVPIMVRELDDLAVLEIGIIENVQRADLNVLEEALSYKVLMEKFERTQENIAQTIGKSXSHVANXMRLLXLPDEVQSYLVSGELTAXHARAIAAAADPVALAKQIIEGGLSVRETEALARKAPNLSAGKSKGGRPPRVKDTDTQALESDLSSVLGLDVSIDHRGSTGTLTITYATLEQLDDLCNRLTRGI
# Variants of: B1
# Test: one-hybrid fitness for binding parS DNA (scaled: cognate 1, non-cognate 0); higher = stronger binding
# Conditions: with parS DNA site
# In short: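 The reporter was HIS3, with the binding site 19 bp from the promoter, in E. coli USO used for bacterial one-hybrid selection of Caulobacter ParB libraries with four specificity codons randomised. Growth was on M9 lacking histidine, with 0.1 mM IPTG and 5 mM 3-AT, for 48 hours at 37°C. Illumina sequencing covered plasmids before and after selection; three replicate libraries were pooled and variants with under 10 reads dropped. A fitness score is the log change in variant-to-wild-type read ratio, rescaled to the cognate and non-cognate references.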
row,Variant,one-hybrid fitness for binding parS DNA
1,PGDR,≤ 0.2
2,YSNA,≤ 0.2
3,YRNE,≤ 0.2
4,LKHI,≤ 0.2
5,SCDF,≤ 0.2
6,EPFI,≤ 0.2
7,YALL,≤ 0.2
8,ILTH,≤ 0.2
9,RHDA,0.545
10,ADKP,0.287
11,SQFL,≤ 0.2
12,NGTN,≤ 0.2
13,YPIF,≤ 0.2
14,NPPI,≤ 0.2
15,PLRD,≤ 0.2
16,SFRS,≤ 0.2
17,LCCR,≤ 0.2
18,DEGG,≤ 0.2
19,RLDT,0.806
20,LSAV,≤ 0.2
21,PKWV,≤ 0.2
22,ELQR,≤ 0.2
23,VAHR,≤ 0.2
24,HYFT,≤ 0.2
25,HMRC,≤ 0.2
26,LQGF,≤ 0.2

row,Variant,one-hybrid fitness for binding parS DNA
1,RTKA,0.808
2,PHNI,≤ 0.2
3,VRCD,≤ 0.2
4,PNNG,≤ 0.2
5,LSTW,≤ 0.2
6,AYFG,≤ 0.2
7,QTGR,≤ 0.2
8,MVTE,≤ 0.2
9,PWHD,≤ 0.2
10,HYHF,≤ 0.2
11,CFHR,≤ 0.2
12,CSTS,≤ 0.2
13,TGDS,≤ 0.2
14,DQFS,≤ 0.2
15,RIVS,1.01
16,KNSG,≤ 0.2
17,RCEW,≤ 0.2
18,IHQR,≤ 0.2
19,EQRK,≤ 0.2
20,KLTY,≤ 0.2
21,IRKL,≤ 0.2
22,GFFS,≤ 0.2
23,IQAR,≤ 0.2
24,DVSW,≤ 0.2
25,YSSY,≤ 0.2
26,FRSS,≤ 0.2

row,Variant,one-hybrid fitness for binding parS DNA
1,HTQG,≤ 0.2
2,CPEM,≤ 0.2
3,RTCN,0.451
4,IEYS,≤ 0.2
5,RVQD,≤ 0.2
6,TRHA,≤ 0.2
7,SMKS,≤ 0.2
8,YAIC,≤ 0.2
9,RRWF,≤ 0.2
10,VRGY,≤ 0.2
11,RFFD,≤ 0.2
12,THSY,≤ 0.2
13,LTFM,≤ 0.2
14,ALMG,≤ 0.2
15,PDQH,≤ 0.2
16,PQNP,≤ 0.2
17,AATT,≤ 0.2
18,AHDF,≤ 0.2
19,DSSV,≤ 0.2
20,LHST,≤ 0.2
21,HVPC,≤ 0.2
22,YQKN,≤ 0.2
23,PSNR,≤ 0.2
24,DMKS,≤ 0.2
25,DTQK,≤ 0.2
26,NRKT,≤ 0.2

row,Variant,one-hybrid fitness for binding parS DNA
1,MPTI,≤ 0.2
2,WKSG,≤ 0.2
3,LPHV,≤ 0.2
4,DIFR,≤ 0.2
5,SDSC,≤ 0.2
6,AHQV,≤ 0.2
7,QMEM,≤ 0.2
8,TDPA,≤ 0.2
9,ARGY,≤ 0.2
10,LMGI,≤ 0.2
11,HNSC,≤ 0.2
12,SWRR,≤ 0.2
13,GEDW,≤ 0.2
14,IRMT,≤ 0.2
15,QGQC,≤ 0.2
16,CSCC,≤ 0.2
17,GSAI,≤ 0.2
18,SVRL,≤ 0.2
19,PPVQ,≤ 0.2
20,AGTE,≤ 0.2
21,NEHR,≤ 0.2
22,PNNH,≤ 0.2
23,EKQP,≤ 0.2
24,RFDG,0.814
25,GPWG,≤ 0.2
26,NCYV,≤ 0.2

row,Variant,one-hybrid fitness for binding parS DNA
1,QYNL,≤ 0.2
2,ECDG,≤ 0.2
3,VWNM,≤ 0.2
4,SIGS,≤ 0.2
5,RTGI,≤ 0.2
6,GRMR,≤ 0.2
7,KHNS,≤ 0.2
8,PNAE,≤ 0.2
9,ARPT,≤ 0.2
10,FPLF,≤ 0.2
11,ADDS,≤ 0.2
12,NNIP,≤ 0.2
13,FWLT,≤ 0.2
14,TMVS,≤ 0.2
15,PARG,≤ 0.2
16,RDDT,≤ 0.2
17,EAHC,≤ 0.2
18,PWHT,≤ 0.2
19,DTSM,≤ 0.2
20,NPDS,≤ 0.2
21,VLTM,≤ 0.2
22,SRTI,≤ 0.2
23,TFVM,≤ 0.2
24,LMFS,≤ 0.2
25,MAVS,≤ 0.2
26,LDPM,≤ 0.2

row,Variant,one-hybrid fitness for binding parS DNA
1,WSHA,≤ 0.2
2,KGLI,≤ 0.2
3,GHWT,≤ 0.2
4,QYVV,≤ 0.2
5,MPPI,≤ 0.2
6,AGVS,≤ 0.2
7,TRYD,≤ 0.2
8,ARKQ,≤ 0.2
9,MYSG,≤ 0.2
10,QLEF,≤ 0.2
11,AVYL,≤ 0.2
12,QTVE,≤ 0.2
13,VNTC,≤ 0.2
14,PPYI,≤ 0.2
15,VNLC,≤ 0.2
16,DRLL,≤ 0.2
17,PLRM,≤ 0.2
18,QRLS,≤ 0.2
19,PRCA,≤ 0.2
20,SYET,≤ 0.2
21,VTPY,≤ 0.2
22,RLDG,0.931
23,QHVP,≤ 0.2
